Data as given in PMC10405097 (JID Innovations, 2023).

Target: T1, extracellular domain (aa 29–331) of IL-13Rα2, C-terminal biotinylated Avi-tag (UniProt Q14627 29-331, biotin on the Avi-tag (BirA))
T1 sequence: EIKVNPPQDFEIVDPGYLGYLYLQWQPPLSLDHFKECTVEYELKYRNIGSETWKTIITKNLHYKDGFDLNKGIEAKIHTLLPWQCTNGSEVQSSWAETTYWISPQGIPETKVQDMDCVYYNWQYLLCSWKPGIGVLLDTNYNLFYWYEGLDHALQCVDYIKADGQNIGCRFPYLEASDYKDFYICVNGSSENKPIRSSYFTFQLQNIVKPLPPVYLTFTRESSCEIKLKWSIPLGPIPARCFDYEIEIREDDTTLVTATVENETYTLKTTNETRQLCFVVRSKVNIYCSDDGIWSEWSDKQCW
Assay: SPR

B1: IL-13 ([…]), C-terminally Avi-His-tagged, nonbiotinylated (ligand)
chain: not shown
modifications: fully glycosylated
Kd: 0.038 to 0.148 pM
